According to the supplement of paper PMC4166925:
± gives the standard deviation of the averaged measurements. In all, about 33,000 sequences were measured (“E-score (dimensionless, -0.5 to 0.5)”: median about -0.049, highest 2% from about 0.37 on). This is one part of the list.

system: T1, PmTbr T-box DNA-binding domain (GST fusion); test: PBM E-score of 8-mer (E-score (dimensionless, -0.5 to 0.5)); Tbr is Tbrain of the sea star Patiria miniata (Pm) or the sea urchin Strongylocentrotus purpuratus (Sp); higher = stronger binding preference; most listed sequences are background and not binding sites; details: the construct has about 5 more residues each side
T1 sequence: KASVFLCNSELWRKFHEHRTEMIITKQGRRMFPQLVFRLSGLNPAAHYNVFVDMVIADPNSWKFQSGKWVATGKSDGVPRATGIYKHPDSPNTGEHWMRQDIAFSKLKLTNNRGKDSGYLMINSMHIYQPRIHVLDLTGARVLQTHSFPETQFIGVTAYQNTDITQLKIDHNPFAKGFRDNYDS
Summary of the method: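 Universal Agilent oligonucleotide arrays, made double-stranded by primer extension, were incubated with 200 nM GST-fused Tbr T-box DNA-binding domain in PBS (pH 7.5). The protein was expressed in BL21 E. coli at 20 °C and purified by glutathione affinity chromatography. After scanning and quantification, the Universal PBM Analysis Suite assigned an enrichment E-score to each ungapped 8-mer, averaged over duplicate arrays.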

| Sequence | PBM E-score of 8-mer |
| --- | --- |
| ATGGTTAA | -0.172 ± 0.0082 |
| AAGGCCTT | -0.237 ± 0.029 |
| AGGGTACG | -0.107 ± 0.06 |
| ATCCTAGA | -0.232 ± 0.018 |
| ACAGTAGA | -0.14 ± 0.0017 |
| CAGTAGGG | -0.0306 ± 0.07 |
| ACGTCCCC | -0.17 ± 0.13 |
| AGTGTGAC | 0.467 ± 0.0075 |
| ATAGTCGG | -0.173 ± 0.049 |
| GGCGCGGA | 0.125 ± 0.075 |
| CAGTGCGA | 0.386 ± 0.019 |
| CCGAAGCC | -0.207 ± 0.013 |
| AGCTGATG | -0.055 ± 0.0056 |
| CCGGACTC | -0.126 ± 0.04 |
| AATTAGTC | -0.166 ± 0.1 |
| AATCCCCT | 0.0001 ± 0.086 |
| GCCCAACA | 0.0617 ± 0.0082 |
| CAGTACAG | -0.142 ± 0.025 |
| CAGGCTTC | -0.0243 ± 0.09 |
| ACTGGTCA | -0.146 ± 0.046 |
| GATTATAA | -0.166 ± 0.075 |
| AGCGGTAC | 0.0345 ± 0.018 |
| AAAGGATA | -0.142 ± 0.028 |
| ATTGAGAG | -0.106 ± 0.1 |
| AAGGGCAT | 0.126 ± 0.021 |

| Sequence | PBM E-score of 8-mer |
| --- | --- |
| GTCTCAAC | 0.00691 ± 0.048 |
| AGTCCGAT | -0.145 ± 0.002 |
| AATCACAA | 0.199 ± 0.0027 |
| CGGCTCAC | 0.0268 ± 0.047 |
| AATGGAAA | -0.292 ± 0.044 |
| CCGGGGAA | -0.285 ± 0.03 |
| CGCGAGCC | 0.107 ± 0.0013 |
| GCAGAGAA | -0.238 ± 0.073 |
| GCCGGTCC | -0.328 ± 0.049 |
| AGCCTCTA | -0.0807 ± 0.013 |
| CCCACCCC | 0.185 ± 0.041 |
| CAGAGTGC | 0.0343 ± 0.018 |
| AGATATTC | -0.13 ± 0.078 |
| AATAAACG | -0.222 ± 0.051 |
| ACATCTTG | -0.0271 ± 0.024 |
| AGGAGCAC | -0.31 ± 0.074 |
| CATGTGTA | 0.0643 ± 0.034 |
| AGGCCAAG | -0.282 ± 0.059 |
| AACAGGGA | -0.204 ± 0.0033 |
| CGAATGCA | -0.0425 ± 0.044 |
| ACTTGCTG | 0.0128 ± 0.01 |
| ACGGCCTC | -0.166 ± 0.071 |
| GTTTACAA | 0.0847 ± 0.0064 |
| CTCATTAC | -0.144 ± 0.012 |
| TCCGCCAA | -0.0166 ± 0.038 |

| Sequence | PBM E-score of 8-mer |
| --- | --- |
| GGCATGCA | -0.086 ± 0.02 |
| AACCCTAC | 0.0576 ± 0.013 |
| ATTATACG | -0.125 ± 0.048 |
| ATGGACCC | -0.211 ± 0.011 |
| GGCTCGTA | -0.191 ± 0.11 |
| TCCTCTAA | -0.221 ± 0.03 |
| TAGGGTGA | 0.199 ± 0.025 |
| CCAGACAA | -0.17 ± 0.077 |
| TACTACGA | 0.0382 ± 0.023 |
| TAACCCGA | -0.165 ± 0.032 |
| CTACCCTA | 0.0602 ± 0.064 |
| CCGAGTAA | -0.122 ± 0.051 |
| CTGAAGAC | 0.0286 ± 0.023 |
| GACTGCAC | -0.181 ± 0.067 |
| GGTCACAC | 0.4613 ± 0.0012 |
| ACGACTTA | 0.0417 ± 0.048 |
| CGGAGATA | 0.06 ± 0.0079 |
| AGGAGCTA | 0.0281 ± 0.032 |
| AGTCCAGA | -0.184 ± 0.081 |
| ATCCCGTA | -0.149 ± 0.053 |
| AAGGGATC | -0.151 ± 0.08 |
| CAGCACCG | 0.123 ± 0.063 |
| ACAAATAC | -0.00747 ± 0.0026 |
| ATCGGGAC | -0.265 ± 0.064 |
| CGTCTCCA | -0.192 ± 0.0094 |

| Sequence | PBM E-score of 8-mer |
| --- | --- |
| CGCAAATA | -0.00643 ± 0.048 |
| CCCTCACC | 0.192 ± 0.049 |
| GATTTCAC | 0.336 ± 0.048 |
| GGGCGTCA | 0.334 ± 0.043 |
| GCCGCCAA | 0.141 ± 0.022 |
| ACGAAATC | -0.0591 ± 0.014 |
| CAATCGCC | -0.0698 ± 0.068 |
| AGCGATCG | 0.0358 ± 0.054 |
| ATCAGCAC | 0.225 ± 0.029 |
| AATTCAAT | -0.161 ± 0.076 |
| GAACATGC | -0.122 ± 0.056 |
| AGTCGAAC | -0.0828 ± 0.11 |
| ACCCAATA | 0.0186 ± 0.015 |
| CAACACAA | 0.141 ± 0.021 |
| ATAACATG | 0.0281 ± 0.035 |
| AGCGCTGC | -0.0413 ± 0.027 |
| AATGGGCT | -0.0829 ± 0.076 |
| TGGGGTAA | -0.16 ± 0.057 |
| GCGCGGCC | -0.0416 ± 0.038 |
| ACGCCCTG | 0.0916 ± 0.018 |
| CATGCGCA | 0.0565 ± 0.077 |
| CCGACGCA | -0.0454 ± 0.012 |
| AACCGGAA | -0.0726 ± 0.085 |
| CCGCGTCG | -0.0318 ± 0.024 |
| AAGAGGGG | -0.166 ± 0.076 |

| Sequence | PBM E-score of 8-mer |
| --- | --- |
| GCTTTAAA | -0.0836 ± 0.039 |
| GATAATAC | -0.0976 ± 0.014 |
| ATACATAT | -0.0446 ± 0.0093 |
| AATGTAAG | -0.0951 ± 0.06 |
| ACGCAGGA | -0.169 ± 0.018 |
| GCGCCCAC | 0.122 ± 0.053 |
| AGAGGGCA | -0.0954 ± 0.0035 |
| ACGAAACT | 0.116 ± 0.0068 |
| CGCAGCGC | 0.106 ± 0.075 |
| ATTCGTCC | -0.232 ± 0.077 |
| ATATACGA | -0.298 ± 0.059 |
| ATAGCGAC | 0.212 ± 0.026 |
| ACATGTCT | 0.117 ± 0.018 |
| AAAGTGAG | 0.219 ± 0.048 |
| AAGCAACG | -0.114 ± 0.14 |
| ATGACTGA | -0.0983 ± 0.02 |
| GAACCGCA | -0.0903 ± 0.015 |
| AACCTAGA | -0.0413 ± 0.052 |
| AATGCTAC | -0.183 ± 0.068 |
| CTAGTGGA | -0.0818 ± 0.033 |
| GTCTCTTA | -0.394 ± 0.036 |
| CGCATTCA | 0.0428 ± 0.077 |
| CCGTTCTA | -0.0987 ± 0.064 |
| CCGCAACA | 0.0931 ± 0.039 |
| CGCATCAG | -0.0358 ± 0.048 |

| Sequence | PBM E-score of 8-mer |
| --- | --- |
| ACGGGTCG | -0.00772 ± 0.094 |
| ATATCACC | 0.364 ± 0.013 |
| CGCGCCAA | 0.3046 ± 0.001 |
| TGAAGGAA | -0.178 ± 0.0066 |
| ATTTAATG | -0.142 ± 0.018 |
| ACGAAGCT | -0.143 ± 0.014 |
| AGAGCCGC | 0.0691 ± 0.026 |
| ATGTAGCC | -0.237 ± 0.027 |
| ACATTGGA | -0.0536 ± 0.027 |
| CCGGTTAC | -0.0412 ± 0.0065 |
| ATCAACCA | -0.067 ± 0.053 |
| CCGAGCCG | -0.165 ± 0.025 |
| ATGATCAA | -0.127 ± 0.051 |
| GGTCCTAC | -0.293 ± 0.07 |
| GCTGATCA | 0.0814 ± 0.046 |
| TATTGAAA | -0.151 ± 0.11 |
| ATTCTTGA | -0.128 ± 0.041 |
| ATTGCCCG | -0.14 ± 0.026 |
| AGCGCTGA | 0.111 ± 0.018 |
| CATGGCAG | -0.00061 ± 0.0062 |
| GATTCGTA | -0.0701 ± 0.0046 |
| AACAACCC | 0.164 ± 0.015 |
| CTGTCCTA | -0.159 ± 0.026 |
| CATCGAAG | -0.0852 ± 0.045 |
| AATTCTGG | -0.141 ± 0.0065 |

| Sequence | PBM E-score of 8-mer |
| --- | --- |
| ATTCGTGC | 0.0479 ± 0.022 |
| CGATTGCA | -0.0105 ± 0.0098 |
| ACTCTAAG | -0.0809 ± 0.026 |
| CCCCTTAG | -0.195 ± 0.0038 |
| ACTAGTCG | 0.06899 ± 0.00056 |
| AATGTTGA | -0.0399 ± 0.032 |
| TGATAGAA | -0.0288 ± 0.044 |
| GATTCTTA | -0.226 ± 0.087 |
| AAAGGCTT | -0.147 ± 0.1 |
| AAGTGCTG | 0.283 ± 0.0071 |
| CGCTATCC | 0.1683 ± 0.0014 |
| AGGTCTAC | -0.22 ± 0.033 |
| ACTCATTC | 0.0418 ± 0.053 |
| GTATATTA | -0.0593 ± 0.012 |
| TCTCCAAA | -0.112 ± 0.014 |
| GCACTCGA | 0.0351 ± 0.056 |
| ACTTATTA | 0.0517 ± 0.051 |
| ACCAGTTC | -0.0453 ± 0.013 |
| CATAAGCG | 0.0288 ± 0.0076 |
| CGAATAGA | 0.121 ± 0.017 |
| CCTTGGCG | 0.246 ± 0.027 |
| GAGCTTAA | -0.18 ± 0.014 |
